From paper PMC12820563, “FoxP3 forms a head-to-head dimer in vivo and stabilizes its multimerization on adjacent microsatellites”
Some of the results follow.

The sequences below were run against T1, MBP-FoxP1dN (Mus musculus, UniProt P58462 326-579) (assay: PD-seq (MBP pull-down with sequencing); 20 mM Tris-HCl pH 7.5, 100 mM NaCl, 1.5 mM MgCl2, 0.4 uM protein, 0.1 uM dsDNA library, 30 min, room temperature, amylose pull-down; high values mean tight binding). Details: protein: recombinant; tags: His6-MBP; chain copies: 2; dsDNA, one strand shown.
T1 sequence: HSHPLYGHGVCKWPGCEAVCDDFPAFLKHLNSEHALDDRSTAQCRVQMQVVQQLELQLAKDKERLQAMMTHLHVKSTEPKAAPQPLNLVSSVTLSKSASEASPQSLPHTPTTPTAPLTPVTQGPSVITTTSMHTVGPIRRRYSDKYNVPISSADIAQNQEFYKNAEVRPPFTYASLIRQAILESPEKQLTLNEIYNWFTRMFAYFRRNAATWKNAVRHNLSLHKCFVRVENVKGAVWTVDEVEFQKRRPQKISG
Method in brief: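 E. coli-expressed mouse FoxP3 or FoxP1 fragment, N-terminus removed and tagged with His6-MBP, was used at 0.4 µM against 0.1 µM of a Klenow-filled degenerate double-stranded DNA library. After 30 min at room temperature in Tris pH 7.5 buffer with NaCl and MgCl2, complexes were pulled down on amylose resin and washed three times. Binding is pull-down over input reads-per-million enrichment from pooled replicates of the proteinase K-released, PCR-barcoded, Illumina-sequenced DNA.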

Sequence	binding signal
GATGATTGTTCTCCCAGCTGATGAATTCTGCGCGTCGAGTAAACAAATTTTCCTAATCTTTCTGTTCAAGCGCCATCTAC	0.978 RPM ratio (pull-down/input)
GATGATTGTTCTCCCAGCTGATGAATTATGTAATTCGAGTAAACAAATTTTCCTAATCTTTCTGTTCAAGCGCCATCTAC	1.31 RPM ratio (pull-down/input)
GATGATTGTTCTCCCAGCTGATGAATTTCGATCATCGAGTAAACAAATTTTCCTAATCTTTCTGTTCAAGCGCCATCTAC	0.943 RPM ratio (pull-down/input)
GATGATTGTTCTCCCAGCTGATGAATTGGTTAGATCGAGTAAACAAATTTTCCTAATCTTTCTGTTCAAGCGCCATCTAC	0.911 RPM ratio (pull-down/input)
GATGATTGTTCTCCCAGCTGATGAATTGTATTTCTCGAGTAAACAAATTTTCCTAATCTTTCTGTTCAAGCGCCATCTAC	1.35 RPM ratio (pull-down/input)
GATGATTGTTCTCCCAGCTGATGAATTATCGATATCGAGTAAACAAATTTTCCTAATCTTTCTGTTCAAGCGCCATCTAC	1.08 RPM ratio (pull-down/input)
GATGATTGTTCTCCCAGCTGATGAATTCATCTAATCGAGTAAACAAATTTTCCTAATCTTTCTGTTCAAGCGCCATCTAC	1.02 RPM ratio (pull-down/input)
GATGATTGTTCTCCCAGCTGATGAATTCAACATGTCGAGTAAACAAATTTTCCTAATCTTTCTGTTCAAGCGCCATCTAC	0.938 RPM ratio (pull-down/input)
GATGATTGTTCTCCCAGCTGATGAATTATAGCGCTCGAGTAAACAAATTTTCCTAATCTTTCTGTTCAAGCGCCATCTAC	0.994 RPM ratio (pull-down/input)
GATGATTGTTCTCCCAGCTGATGAATTATCGGGCTCGAGTAAACAAATTTTCCTAATCTTTCTGTTCAAGCGCCATCTAC	0.828 RPM ratio (pull-down/input)
GATGATTGTTCTCCCAGCTGATGAATTAGAAGCGTCGAGTAAACAAATTTTCCTAATCTTTCTGTTCAAGCGCCATCTAC	0.983 RPM ratio (pull-down/input)
GATGATTGTTCTCCCAGCTGATGAATTTAAGGGTTCGAGTAAACAAATTTTCCTAATCTTTCTGTTCAAGCGCCATCTAC	0.841 RPM ratio (pull-down/input)
GATGATTGTTCTCCCAGCTGATGAATTTACGGAATCGAGTAAACAAATTTTCCTAATCTTTCTGTTCAAGCGCCATCTAC	1.29 RPM ratio (pull-down/input)
GATGATTGTTCTCCCAGCTGATGAATTATGAGAGTCGAGTAAACAAATTTTCCTAATCTTTCTGTTCAAGCGCCATCTAC	0.846 RPM ratio (pull-down/input)
GATGATTGTTCTCCCAGCTGATGAATTCTGTAGTTCGAGTAAACAAATTTTCCTAATCTTTCTGTTCAAGCGCCATCTAC	1.05 RPM ratio (pull-down/input)
GATGATTGTTCTCCCAGCTGATGAATTCCACACTTCGAGTAAACAAATTTTCCTAATCTTTCTGTTCAAGCGCCATCTAC	0.821 RPM ratio (pull-down/input)
GATGATTGTTCTCCCAGCTGATGAATTATAAACCTCGAGTAAACAAATTTTCCTAATCTTTCTGTTCAAGCGCCATCTAC	1.11 RPM ratio (pull-down/input)
GATGATTGTTCTCCCAGCTGATGAATTTTGGGACTCGAGTAAACAAATTTTCCTAATCTTTCTGTTCAAGCGCCATCTAC	0.815 RPM ratio (pull-down/input)
GATGATTGTTCTCCCAGCTGATGAATTTCCAACTTCGAGTAAACAAATTTTCCTAATCTTTCTGTTCAAGCGCCATCTAC	0.831 RPM ratio (pull-down/input)
GATGATTGTTCTCCCAGCTGATGAATTGAACTTGTCGAGTAAACAAATTTTCCTAATCTTTCTGTTCAAGCGCCATCTAC	0.829 RPM ratio (pull-down/input)
GATGATTGTTCTCCCAGCTGATGAATTGGTCCGGTCGAGTAAACAAATTTTCCTAATCTTTCTGTTCAAGCGCCATCTAC	0.81 RPM ratio (pull-down/input)

Sequence	binding signal
GATGATTGTTCTCCCAGCTGATGAATTGCTTCATTCGAGTAAACAAATTTTCCTAATCTTTCTGTTCAAGCGCCATCTAC	1.05 RPM ratio (pull-down/input)
GATGATTGTTCTCCCAGCTGATGAATTCTTGAGTTCGAGTAAACAAATTTTCCTAATCTTTCTGTTCAAGCGCCATCTAC	0.836 RPM ratio (pull-down/input)
GATGATTGTTCTCCCAGCTGATGAATTCTTGGGGTCGAGTAAACAAATTTTCCTAATCTTTCTGTTCAAGCGCCATCTAC	0.791 RPM ratio (pull-down/input)
GATGATTGTTCTCCCAGCTGATGAATTTACGACCTCGAGTAAACAAATTTTCCTAATCTTTCTGTTCAAGCGCCATCTAC	1.1 RPM ratio (pull-down/input)
GATGATTGTTCTCCCAGCTGATGAATTACAGTTGTCGAGTAAACAAATTTTCCTAATCTTTCTGTTCAAGCGCCATCTAC	1.46 RPM ratio (pull-down/input)
GATGATTGTTCTCCCAGCTGATGAATTCAATGTGTCGAGTAAACAAATTTTCCTAATCTTTCTGTTCAAGCGCCATCTAC	0.916 RPM ratio (pull-down/input)
GATGATTGTTCTCCCAGCTGATGAATTCACCCTCTCGAGTAAACAAATTTTCCTAATCTTTCTGTTCAAGCGCCATCTAC	0.88 RPM ratio (pull-down/input)
GATGATTGTTCTCCCAGCTGATGAATTGCTGATGTCGAGTAAACAAATTTTCCTAATCTTTCTGTTCAAGCGCCATCTAC	1.22 RPM ratio (pull-down/input)
GATGATTGTTCTCCCAGCTGATGAATTAATGTCCTCGAGTAAACAAATTTTCCTAATCTTTCTGTTCAAGCGCCATCTAC	0.913 RPM ratio (pull-down/input)
GATGATTGTTCTCCCAGCTGATGAATTCGGTGGGTCGAGTAAACAAATTTTCCTAATCTTTCTGTTCAAGCGCCATCTAC	0.746 RPM ratio (pull-down/input)
GATGATTGTTCTCCCAGCTGATGAATTCCGGCGATCGAGTAAACAAATTTTCCTAATCTTTCTGTTCAAGCGCCATCTAC	0.757 RPM ratio (pull-down/input)
GATGATTGTTCTCCCAGCTGATGAATTGCGCCGCTCGAGTAAACAAATTTTCCTAATCTTTCTGTTCAAGCGCCATCTAC	1.01 RPM ratio (pull-down/input)
GATGATTGTTCTCCCAGCTGATGAATTAAGGACCTCGAGTAAACAAATTTTCCTAATCTTTCTGTTCAAGCGCCATCTAC	0.841 RPM ratio (pull-down/input)
GATGATTGTTCTCCCAGCTGATGAATTCCTCTCTTCGAGTAAACAAATTTTCCTAATCTTTCTGTTCAAGCGCCATCTAC	0.833 RPM ratio (pull-down/input)
GATGATTGTTCTCCCAGCTGATGAATTGGTCTATTCGAGTAAACAAATTTTCCTAATCTTTCTGTTCAAGCGCCATCTAC	1.05 RPM ratio (pull-down/input)
GATGATTGTTCTCCCAGCTGATGAATTATAGCTCTCGAGTAAACAAATTTTCCTAATCTTTCTGTTCAAGCGCCATCTAC	0.937 RPM ratio (pull-down/input)
GATGATTGTTCTCCCAGCTGATGAATTGAGTCATTCGAGTAAACAAATTTTCCTAATCTTTCTGTTCAAGCGCCATCTAC	0.995 RPM ratio (pull-down/input)
GATGATTGTTCTCCCAGCTGATGAATTCGTCCATTCGAGTAAACAAATTTTCCTAATCTTTCTGTTCAAGCGCCATCTAC	0.829 RPM ratio (pull-down/input)
GATGATTGTTCTCCCAGCTGATGAATTGGACCCATCGAGTAAACAAATTTTCCTAATCTTTCTGTTCAAGCGCCATCTAC	0.846 RPM ratio (pull-down/input)
GATGATTGTTCTCCCAGCTGATGAATTACGAATGTCGAGTAAACAAATTTTCCTAATCTTTCTGTTCAAGCGCCATCTAC	1 RPM ratio (pull-down/input)
GATGATTGTTCTCCCAGCTGATGAATTATGTCAGTCGAGTAAACAAATTTTCCTAATCTTTCTGTTCAAGCGCCATCTAC	1.04 RPM ratio (pull-down/input)

Sequence	binding signal
GATGATTGTTCTCCCAGCTGATGAATTAATCGGTTCGAGTAAACAAATTTTCCTAATCTTTCTGTTCAAGCGCCATCTAC	0.972 RPM ratio (pull-down/input)
GATGATTGTTCTCCCAGCTGATGAATTTCCGACTTCGAGTAAACAAATTTTCCTAATCTTTCTGTTCAAGCGCCATCTAC	0.805 RPM ratio (pull-down/input)
GATGATTGTTCTCCCAGCTGATGAATTTTTTACATCGAGTAAACAAATTTTCCTAATCTTTCTGTTCAAGCGCCATCTAC	0.953 RPM ratio (pull-down/input)
GATGATTGTTCTCCCAGCTGATGAATTAAACCTGTCGAGTAAACAAATTTTCCTAATCTTTCTGTTCAAGCGCCATCTAC	0.903 RPM ratio (pull-down/input)
GATGATTGTTCTCCCAGCTGATGAATTCAGAGAGTCGAGTAAACAAATTTTCCTAATCTTTCTGTTCAAGCGCCATCTAC	0.777 RPM ratio (pull-down/input)
GATGATTGTTCTCCCAGCTGATGAATTTCCGCCTTCGAGTAAACAAATTTTCCTAATCTTTCTGTTCAAGCGCCATCTAC	0.87 RPM ratio (pull-down/input)
GATGATTGTTCTCCCAGCTGATGAATTAGTTGAGTCGAGTAAACAAATTTTCCTAATCTTTCTGTTCAAGCGCCATCTAC	0.85 RPM ratio (pull-down/input)
GATGATTGTTCTCCCAGCTGATGAATTAAACTACTCGAGTAAACAAATTTTCCTAATCTTTCTGTTCAAGCGCCATCTAC	1.01 RPM ratio (pull-down/input)
GATGATTGTTCTCCCAGCTGATGAATTTAGCTAGTCGAGTAAACAAATTTTCCTAATCTTTCTGTTCAAGCGCCATCTAC	0.944 RPM ratio (pull-down/input)
GATGATTGTTCTCCCAGCTGATGAATTCAGGAAGTCGAGTAAACAAATTTTCCTAATCTTTCTGTTCAAGCGCCATCTAC	0.816 RPM ratio (pull-down/input)
GATGATTGTTCTCCCAGCTGATGAATTAGCGGATTCGAGTAAACAAATTTTCCTAATCTTTCTGTTCAAGCGCCATCTAC	0.845 RPM ratio (pull-down/input)
GATGATTGTTCTCCCAGCTGATGAATTGTGACATTCGAGTAAACAAATTTTCCTAATCTTTCTGTTCAAGCGCCATCTAC	1.3 RPM ratio (pull-down/input)
GATGATTGTTCTCCCAGCTGATGAATTCAATACTTCGAGTAAACAAATTTTCCTAATCTTTCTGTTCAAGCGCCATCTAC	0.95 RPM ratio (pull-down/input)
GATGATTGTTCTCCCAGCTGATGAATTAAGGGCATCGAGTAAACAAATTTTCCTAATCTTTCTGTTCAAGCGCCATCTAC	1.04 RPM ratio (pull-down/input)
GATGATTGTTCTCCCAGCTGATGAATTTAAAAAGTCGAGTAAACAAATTTTCCTAATCTTTCTGTTCAAGCGCCATCTAC	0.928 RPM ratio (pull-down/input)
GATGATTGTTCTCCCAGCTGATGAATTCGCTAAATCGAGTAAACAAATTTTCCTAATCTTTCTGTTCAAGCGCCATCTAC	0.979 RPM ratio (pull-down/input)
GATGATTGTTCTCCCAGCTGATGAATTGAATCTCTCGAGTAAACAAATTTTCCTAATCTTTCTGTTCAAGCGCCATCTAC	0.83 RPM ratio (pull-down/input)
GATGATTGTTCTCCCAGCTGATGAATTGGTCCCATCGAGTAAACAAATTTTCCTAATCTTTCTGTTCAAGCGCCATCTAC	0.976 RPM ratio (pull-down/input)
GATGATTGTTCTCCCAGCTGATGAATTATGAAAGTCGAGTAAACAAATTTTCCTAATCTTTCTGTTCAAGCGCCATCTAC	0.906 RPM ratio (pull-down/input)
GATGATTGTTCTCCCAGCTGATGAATTTTTCCCGTCGAGTAAACAAATTTTCCTAATCTTTCTGTTCAAGCGCCATCTAC	0.892 RPM ratio (pull-down/input)
GATGATTGTTCTCCCAGCTGATGAATTACGAGGCTCGAGTAAACAAATTTTCCTAATCTTTCTGTTCAAGCGCCATCTAC	0.986 RPM ratio (pull-down/input)
